Experimental data: the supplement of paper PMC3334620
Whole data set: some 33,000 sequences, median “E-score (-0.5 to 0.5)” near -0.043, cut for the highest 2% near 0.37. Some of the results follow.

Biological target: T1, Upc2 (UniProt Q12151)
T1 sequence: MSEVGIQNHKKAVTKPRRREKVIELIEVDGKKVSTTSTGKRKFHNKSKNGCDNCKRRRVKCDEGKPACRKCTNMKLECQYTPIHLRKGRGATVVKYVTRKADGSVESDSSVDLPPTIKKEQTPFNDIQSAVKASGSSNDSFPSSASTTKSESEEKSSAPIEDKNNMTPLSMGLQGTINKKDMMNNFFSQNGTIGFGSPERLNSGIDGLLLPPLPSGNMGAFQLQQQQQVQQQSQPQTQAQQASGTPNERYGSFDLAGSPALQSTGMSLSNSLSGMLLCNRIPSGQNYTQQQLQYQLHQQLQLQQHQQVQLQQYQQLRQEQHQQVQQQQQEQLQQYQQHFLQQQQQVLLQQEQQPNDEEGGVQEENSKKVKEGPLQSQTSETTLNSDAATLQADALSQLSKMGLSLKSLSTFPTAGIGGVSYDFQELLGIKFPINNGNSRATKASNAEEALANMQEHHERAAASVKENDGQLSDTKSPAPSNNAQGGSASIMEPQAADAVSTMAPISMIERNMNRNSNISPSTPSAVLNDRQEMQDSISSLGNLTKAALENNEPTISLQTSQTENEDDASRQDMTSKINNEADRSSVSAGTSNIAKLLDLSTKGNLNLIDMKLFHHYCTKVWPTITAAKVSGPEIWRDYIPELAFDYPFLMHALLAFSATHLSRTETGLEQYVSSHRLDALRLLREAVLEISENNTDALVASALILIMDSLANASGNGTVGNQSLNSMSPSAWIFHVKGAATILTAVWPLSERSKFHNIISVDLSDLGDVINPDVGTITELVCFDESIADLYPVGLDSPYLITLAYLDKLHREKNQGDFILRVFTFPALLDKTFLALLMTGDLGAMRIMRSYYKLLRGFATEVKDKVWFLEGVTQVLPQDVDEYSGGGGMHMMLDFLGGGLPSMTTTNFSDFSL
Experiment: PBM E-score (8-mer binding enrichment) (E-score (-0.5 to 0.5)); higher = stronger / more preferred TF binding; most listed sequences are background and not binding sites
Conditions: protein concentration: 200 nM; construct: GST-full length
How it was run: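 Using PURExpress in vitro transcription/translation, GST-tagged yeast transcription factors were made in full-length or DNA-binding-domain form. These were applied at about 100-200 nM to double-stranded universal all-10-mer Agilent arrays, and bound protein was detected with fluorescent anti-GST. Scans were normalised with masliner before the Universal PBM Analysis Suite assigned E-scores to ungapped eight-base words pooled with their reverse complements.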

Sequence | PBM E-score
CTGAATCC | -0.226
GGGCGGCA | -0.183
ATCACACG | 0.0148
ATTCTGAA | 0.0717
CGGTTTGA | -0.091
CACCGCGC | 0.0554
AAGTTTAG | -0.00488
AGGGTTTG | -0.00132
AAGACTGC | -0.249
TAAATAGA | 0.091
AGCGACTG | 0.143
ACACAGCA | 0.0464
CAGGAGCA | -0.114
GCGGCCGA | 0.0684
CATCGTCC | -0.0591
AAATTCTC | 0.0927
GCATGGGA | -0.165
CGACCTGA | 0.212
GATCCCAA | -0.264
CCTATTGC | -0.114
AAATACCT | -0.211
AACGCCGT | 0.227
AATCAGCG | 0.0973
ACACTGGA | -0.138
GCTGTATA | 0.11

Sequence | PBM E-score
CATTTGTC | 0.0413
GTAGAGGA | -0.043
GCCAGAGA | -0.00631
CATGAGGG | -0.138
ACCCTCGG | -0.0688
CATACTGA | -0.0722
GACATACA | -0.0273
ACTAACTG | -0.192
CCATAACG | 0.0465
GGAAAATA | 0.0478
GAGCCTGA | -0.0407
AACGTCTA | -0.0334
GAAGGTTA | 0.00519
GCCACTGA | -0.192
CCCTTGAG | -0.223
ATAACTTC | 0.0484
AAGGAGGA | 0.0664
GAGCTTGA | -0.0854
CGGAACCC | -0.0167
ATTGAATC | -0.166
AGAGAAGG | -0.186
ATTTCACG | 0.168
AGACTAAG | 0.0429
ACTTATCC | 0.041
AGTTGAGG | -0.0957

Sequence | PBM E-score
GCCTGGAC | -0.164
AAGGTTTC | -0.139
ACCTGCTA | -0.158
CGGCAGCA | -0.139
TCGTGGCA | -0.093
CGACTTCC | 0.0204
GCGCTTAA | 0.173
GCGTCTAA | -0.0951
AAATACTC | -0.0601
AGGTCGCG | -0.0323
CGAGAGGC | 0.0241
ACCTACCA | -0.173
CGCTAGAA | -0.15
ATGGCGGG | -0.106
ATGGGCGA | -0.0811
ACTATGAA | -0.0506
CGCAGCTC | 0.0312
GTCCGCAA | -0.0605
ATGGCAGG | -0.163
GGAGTCAC | -0.218
GCCTTTCA | -0.221
AGACAAGG | -0.197
CAGTACGA | 0.411
CTAGATTA | -0.0618
ACCGAAAC | 0.239

Sequence | PBM E-score
TCCAACGA | -0.0253
CTTAGGGC | -0.146
ATTGTGCC | -0.149
CAAAGTCG | 0.0367
AGTGGTAG | -0.0878
GCGCGAAC | 0.135
ATGGTAGG | -0.175
AGTAGGGC | -0.114
CCACCAGG | -0.171
ACCCTTTG | -0.249
CGTTTTAC | 0.272
AACGGGAT | 0.252
CTACGCCC | -0.0731
CTATAAAC | 0.278
TAGTTCGA | -0.115
TACAGGCA | 0.113
GTGTACAC | 0.0361
AGGGCATA | -0.113
CGTGTTAC | 0.138
GTGAGTAA | -0.0525
ATTAAATC | -0.00655
ATTGATTA | 0.106
GTATAATA | 0.375
ACGTCGCC | -0.0186
GTCCTAAA | 0.195

Sequence | PBM E-score
ACCGGGGG | -0.287
ACACGCTA | -0.0131
GCGACTTA | 0.0997
AGTCATGA | -0.172
CTCCGTAC | 0.376
CGATAAAG | 0.0042
CAATGTAG | -0.165
GACGTAGA | 0.054
AGGTCACC | -0.279
AGCCAGAG | -0.0862
AGATCATG | -0.187
ACGCCGGG | -0.0129
ACCCAGCT | -0.168
CCTGTCTC | -0.204
AAGTGCAC | 0.0393
AATAATAC | 0.186
CGGTGGTA | 0.119
GTAGGTCA | -0.172
GAGTTGGA | -0.197
GACATCCA | -0.0621
GCCAATCA | -0.188
GAGGCAGC | -0.128
CGCTAAGC | 0.214
AGGACTGA | -0.0967
AGTCATTA | -0.0642

Sequence | PBM E-score
ACAGAGAC | -0.124
ACACTCGC | 0.111
GAAATTGC | -0.0609
GGTTACAC | 0.0171
AAACCACG | -0.0614
CCCGAGAC | 0.0631
ACCTGCAC | -0.0354
CATATCGC | 0.113
GGGGGAAC | -0.071
CCTCCCTC | -0.0405
GCAACTCC | -0.318
GAACCCAA | -0.0241
ATCAGATG | -0.265
ATTTGACG | 0.125
GTATGGGA | 0.164
GGATCTCA | -0.23
CGTGATAC | 0.0875
AATGCGGC | 0.032
CCAACCCC | -0.136
ACCATTAC | 0.17
CAACGTGG | -0.18
TGCACCCA | -0.0139
CGAAAGCA | 0.104
GACTTCTC | -0.122
CATTGTCA | 0.0475

Sequence | PBM E-score
ATAGGGTC | -0.145
AGGTAGAC | -0.125
CTCGCGTA | 0.327
GATGTGGC | -0.0833
GTGTACCA | 0.0546
CCAGGACC | -0.317
ATTCACTA | -0.0977
TATATCGA | 0.131
GAGCGGAC | 0.0387
TGAAACAA | 0.0416
TACGCAGA | 0.261
AACCTCCG | -0.137
CGTAAGAC | 0.257
GCGTCCCA | -0.17
AAAGCCCT | -0.223
TAGTATAA | 0.22
ATCTGGGG | -0.106
ACTGTGCC | -0.212
AAGATCCG | -0.0061
GGTTTAGA | -0.055
CTAACGAC | 0.279
CGAGGCCC | 0.0437
